# PubChem BioAssay AID1634 (National Center for Advancing Translational Sciences (NCATS), 2009)
# The campaign covered roughly 260,000 compounds. About 150 (0.058%) were called active. Inconclusive results, whose numbers are uncertain, are shown with a selection of clear calls. Calls come from the whole dose curve; as a rule, active = well fitted inhibition curve with a large enough effect; inconclusive = small, poorly fitted or top-dose-only effect; inactive = no such curve, though single readings can be large or run the other way. Potencies of inconclusive entries are left out as doubtful fits.
# Biological target: Pyruvate kinase PKM (Homo sapiens) (UniProt P14618)
# Assay: qHTS Assay for Inhibitors of Human Muscle isoform 2 Pyruvate Kinase; note: nearly all actives have a fitted effect of over 60% in size
# Settings: purified PKM2, ATP generation, Kinase-Glo luminescence; series mostly up to 57.5 µM
# How it was run: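 Enzyme run at intermediate activity with final 0.1 mM ADP, 0.5 mM PEP (50 mM imidazole pH7.2, 50 mM KCl, 7 mM MgCl2), incubated 1 h at r.t. ATP formed read by Kinase-Glo luminescence, normalized to no-enzyme (full inhibition) and uninhibited wells.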
# Potency is the fitted concentration of half-maximal effect; tags give direction and shape of the fitted curve.
# Sequence of UniProt P14618 (P14618 whole entry, looked up, canonical isoform): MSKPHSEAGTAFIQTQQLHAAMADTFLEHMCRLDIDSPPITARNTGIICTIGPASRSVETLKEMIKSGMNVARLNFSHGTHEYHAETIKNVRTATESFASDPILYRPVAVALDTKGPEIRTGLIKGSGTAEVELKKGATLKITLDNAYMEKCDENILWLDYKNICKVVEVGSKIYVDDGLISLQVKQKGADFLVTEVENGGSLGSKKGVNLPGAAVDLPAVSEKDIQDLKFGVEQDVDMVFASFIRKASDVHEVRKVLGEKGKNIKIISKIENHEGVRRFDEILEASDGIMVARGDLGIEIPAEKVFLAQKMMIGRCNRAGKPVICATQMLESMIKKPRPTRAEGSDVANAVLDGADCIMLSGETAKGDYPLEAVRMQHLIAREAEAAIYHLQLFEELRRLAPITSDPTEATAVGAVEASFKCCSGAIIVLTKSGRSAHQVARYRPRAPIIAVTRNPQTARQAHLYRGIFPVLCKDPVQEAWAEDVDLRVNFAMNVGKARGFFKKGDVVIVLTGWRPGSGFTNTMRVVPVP
row,Structure (SMILES),Potency
1,COC(=O)c1sc(NC(=O)c2ccc(C)o2)nc1C,"inconclusive [falling, partial curve]"
2,c1ccc2nc(-c3nc4ccccc4[nH]3)ccc2c1,"inconclusive [falling, partial curve]"
3,C/C(=N\Nc1ccc(S(N)(=O)=O)cc1[N+](=O)[O-])c1ccco1,inactive
4,Cc1cc(CNC(=O)COc2ccc(F)cc2)c2ccccc2n1,"inconclusive [falling, single point]"
5,Cc1cc(C)nc(NC(=O)c2ccc(COc3ccccc3Cl)cc2)c1,"inconclusive [falling, single point]"
6,Cc1ccnc(NS(=O)(=O)c2ccc3c(c2)CCO3)c1,inactive
7,O=C(Nc1ccn(Cc2cccc3ccccc23)n1)c1cccnc1,"inconclusive [falling, single point]"
8,O=C(O)C1C2C=CC(O2)C1C(=O)Nc1ccc(S(=O)(=O)N2CCc3ccccc32)cc1 (stereo not drawn),inactive
9,O=C(NNC(=O)c1cc2cc(Br)ccc2oc1=O)c1ccc(O)cc1O,inactive
10,NC1=NC(c2cn[nH]c2-c2cccc(F)c2)n2c(nc3ccccc32)N1 (stereo not drawn),"inconclusive [falling, partial curve]"
11,Cc1ccc(C=C2C(=O)c3ccccc3C2=O)o1,active: 14.1 µM
12,NS(=O)(=O)c1cc2c(cc1Cl)NC(CSCc1ccccc1)=NS2(=O)=O,inactive
13,Cc1csc(NC(=O)c2cccn2C)n1,"inconclusive [falling, partial curve]"
14,O=C1CCCC2=C1C(c1ccc(O)c(Br)c1)C1=C(CCCC1=O)N2c1ccccc1,"inconclusive [falling, single point]"
15,Cc1ccc(C(=O)Oc2csc(=S)n2C(=O)c2ccc(C)cc2)cc1,"inconclusive [falling, single point]"
16,Cc1c(NC(=O)C(C)OC(=O)/C=C/c2ccccc2)c(=O)n(-c2ccccc2)n1C (stereo not drawn),"inconclusive [falling, single point]"
17,c1coc(-c2nnc(-c3ccc4c(c3)OCO4)o2)c1,"inconclusive [falling, partial curve]"
18,CC(C)(C)C(=O)OCc1nc(-c2ccc(O)c(O)c2)cs1,inactive
19,CCCCc1ccc(NC(=S)NCC2CCCO2)cc1 (stereo not drawn),"inconclusive [falling, single point]"
20,C=CCc1cccc(/C=N/NC(=O)C(C)Nc2cccc(C)c2)c1O (stereo not drawn),"inconclusive [falling, single point]"
21,Cc1cc2[nH]c(=O)c(=O)[nH]c2cc1S(=O)(=O)Nc1cccc(Cl)c1C,inactive
22,Cc1cc(=O)n(C)c(=O)n1CCCCOc1ccc([N+](=O)[O-])cc1,inactive
23,CC(=O)Oc1ccc(-c2nc(-c3cccnc3)no2)cc1,"inconclusive [falling, partial curve]"
24,COc1ccc(/C=N/Nc2ncccc2[N+](=O)[O-])c(OC)c1,"inconclusive [falling, partial curve]"

row,Structure (SMILES),Potency
1,Cc1ccc(-c2nc3ccccc3[nH]2)cc1NC(=O)/C=C/c1ccco1,inactive
2,O=C(NC(=S)Nc1ccccn1)c1ccccc1,"inconclusive [falling, partial curve]"
3,O=C(/C=C/c1ccc(Cl)c(Cl)c1)NC1=NCCS1,"inconclusive [falling, single point]"
4,O=C1c2ccccc2-c2nnc(-c3ccccc3)cc21,"inconclusive [falling, partial curve]"
5,COc1ccc(-c2nn(-c3ccccc3)cc2/C=C/C(=O)OCC(=O)Nc2ccccc2C#N)cc1,"inconclusive [falling, single point]"
6,NC(N)=NC1=NC(=O)C(Cc2ccccc2Cl)S1 (stereo not drawn),inactive
7,Cc1ccc(/C=N/N2CCN(Cc3ccc(Cl)cc3)CC2)o1,inactive
8,N#Cc1ccc(NC(=S)NCCN2CCOCC2)cc1,inactive
9,COc1ccc(NC(=O)c2cc(S(=O)(=O)N3CCCCC3)c[nH]2)c(OC)c1,inactive
10,COc1cc2c(cc1OC)C(C1(O)CCCCC1)NCC2 (stereo not drawn),"inconclusive [falling, single point]"
11,CC(=O)Nc1cccc(-c2nc3ccc(NC(C)=O)cc3s2)c1,"inconclusive [falling, single point]"
12,CC(NC(=O)C12CC3CC(CC(C3)C1)C2)C(=O)NCCN(C)C (stereo not drawn),"inconclusive [falling, single point]"
13,CC(C)N(C(=O)COC(=O)c1ccc(Cl)nc1)C(C)C,"inconclusive [falling, single point]"
14,COc1cccc(-n2cn[nH]c2=S)c1,active: 14.1 µM
15,S=c1[nH]nc(COc2ccccc2)n1/N=C/c1ccncc1,"inconclusive [falling, single point]"
16,CCCCC1N2CC3([N+](=O)[O-])CN1CC([N+](=O)[O-])(C2)C3(C)C (stereo not drawn),"inconclusive [falling, single point]"
17,C#CCNC(=O)C1=C[C@@H](c2csc3ccccc23)C[C@@H](OCc2ccc(CO)cc2)O1,inactive
18,Cc1ccc(/C=N/N2CCN(C3c4ccccc4-c4ccccc43)CC2)o1,inactive
19,Cc1ccc(-c2nc3ccccn3c2NCc2ccc3c(c2)OCO3)cc1,"inconclusive [falling, partial curve]"
20,C=CCSc1nnc(-c2cccnc2)o1,"inconclusive [falling, partial curve, poor fit]"
21,CCOc1nc(C)cc(C)c1S(=O)(=O)c1cccc(C)c1,"inconclusive [falling, single point]"
22,O=C(CSc1cccc[n+]1[O-])Nc1ccc([N+](=O)[O-])cc1Cl,"inconclusive [falling, single point]"
23,CCOc1cccc2c1OC1(CCCCC1)N1N=C(c3cccnc3)CC21 (stereo not drawn),inactive
24,O=C(NCCCN1CCOCC1)c1ccccc1NS(=O)(=O)c1ccc(F)cc1,"inconclusive [falling, single point]"
